# According to the supplement of paper PMC8728848:
# Some of the results follow.
# B1: HA-11100 (Pseudomonas aeruginosa), Q02G51_PSEAB (protein)
# chain: QFNPNEIKISQQGKTTLIDQSTQRAIINWKGFDVSADEAVRFNQPGVTSSTLNRVTAGQESVIAGRISAPGQVIIYNSNGVVFSGSAKVDVGSLITTTANISDEHFRQGKLIFDQPGNPDARIVNDGSISVAEKGLAAFVAPSVANNGVINARLGTVAMAAGNAATIDLYG
# Assays:
# Experiment in all cases: glycan array binding signal (z-score within array); higher = stronger binding
# Settings in all cases: glycan notation: IUPAC condensed, linker removed
# [1] = molecular target: Fuc(a1-2)[Gal(a1-3)]Gal(b1-4)GlcNAc(b1-2)Man(a1-3)[Fuc(a1-2)[Gal(a1-3)]Gal(b1-4)GlcNAc(b1-2)Man(a1-6)]Man(b1-4)GlcNAc(b1-4)GlcNAc
# Method in brief: (§1)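 Glycan array binding is given as a within-array Z-score, which can be read as non-binding when negative. The arrays, 3228 of them, came from the Consortium for Functional Glycomics database and were retained only where the protein sequence was available. Z-scores were averaged across arrays of the same protein sequence at different concentrations or buffers and across linkers.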
# [2] = molecular target: Fuc(a1-2)[Gal(a1-3)]Gal(b1-4)GlcNAc(b1-2)Man(a1-3)[Fuc(a1-2)[Gal(a1-3)]Gal(b1-4)GlcNAc(b1-2)Man(a1-6)]Man(b1-4)GlcNAc(b1-4)[Fuc(a1-6)]GlcNAc
# Method in brief: as §1
# [3] = molecular target: Fuc(a1-2)[Gal(a1-3)]Gal(b1-4)GlcNAc(b1-3)GalNAc
# Method in brief: as §1
# [4] = molecular target: Fuc(a1-2)[Gal(a1-3)]Gal(b1-4)GlcNAc(b1-3)[Fuc(a1-2)[Gal(a1-3)]Gal(b1-4)GlcNAc(b1-6)]GalNAc
# Method in brief: as §1
# [5] = molecular target: Fuc(a1-2)[Gal(a1-3)]Gal(b1-4)GlcNAc(b1-6)GalNAc
# Method in brief: as §1
# [6] = molecular target: Fuc(a1-2)[Gal(a1-3)]Gal(b1-4)[Fuc(a1-3)]Glc
# Method in brief: as §1
# [7] = molecular target: Fuc(a1-2)[Gal(a1-3)]Gal(b1-4)[Fuc(a1-3)]GlcNAc
# Method in brief: as §1
# [8] = molecular target: Fuc(a1-2)[Gal(a1-3)]Gal(b1-4)[Fuc(a1-3)]GlcNAc(b1-3)GalNAc
# Method in brief: as §1
# [9] = molecular target: Fuc(a1-2)[Gal(a1-4)]Gal(b1-4)GlcNAc
# Method in brief: as §1
# [10] = molecular target: Fuc(a1-2)[GalNAc(a1-3)]Gal
# Method in brief: as §1
# [11] = molecular target: Fuc(a1-2)[GalNAc(a1-3)]Gal(b1-3)GalNAc(a1-3)[Fuc(a1-2)]Gal(b1-4)GlcNAc
# Method in brief: as §1
# [12] = molecular target: Fuc(a1-2)[GalNAc(a1-3)]Gal(b1-3)GalNAc(b1-3)Gal(a1-4)Gal(b1-4)Glc
# Method in brief: as §1
# [13] = molecular target: Fuc(a1-2)[GalNAc(a1-3)]Gal(b1-3)GlcNAc
# Method in brief: as §1
# [14] = molecular target: Fuc(a1-2)[GalNAc(a1-3)]Gal(b1-3)GlcNAc(b1-2)Man(a1-3)[Fuc(a1-2)[GalNAc(a1-3)]Gal(b1-3)GlcNAc(b1-2)Man(a1-6)]Man(b1-4)GlcNAc(b1-4)GlcNAc
# Method in brief: as §1
# [15] = molecular target: Fuc(a1-2)[GalNAc(a1-3)]Gal(b1-3)GlcNAc(b1-2)Man(a1-3)[Fuc(a1-2)[GalNAc(a1-3)]Gal(b1-3)GlcNAc(b1-2)Man(a1-6)]Man(b1-4)GlcNAc(b1-4)[Fuc(a1-6)]GlcNAc
# Method in brief: as §1
# [16] = molecular target: Fuc(a1-2)[GalNAc(a1-3)]Gal(b1-3)GlcNAc(b1-3)GalNAc
# Method in brief: as §1
# [17] = molecular target: Fuc(a1-2)[GalNAc(a1-3)]Gal(b1-3)GlcNAc(b1-6)GalNAc
# Method in brief: as §1
# [18] = molecular target: Fuc(a1-2)[GalNAc(a1-3)]Gal(b1-4)Glc
# Method in brief: as §1
# [19] = molecular target: Fuc(a1-2)[GalNAc(a1-3)]Gal(b1-4)GlcNAc
# Method in brief: as §1
# [20] = molecular target: Fuc(a1-2)[GalNAc(a1-3)]Gal(b1-4)GlcNAc(b1-2)Man
# Method in brief: as §1
# [21] = molecular target: Fuc(a1-2)[GalNAc(a1-3)]Gal(b1-4)GlcNAc(b1-2)Man(a1-3)[Fuc(a1-2)[GalNAc(a1-3)]Gal(b1-4)GlcNAc(b1-2)Man(a1-6)]Man(b1-4)GlcNAc(b1-4)GlcNAc
# Method in brief: as §1
# [22] = molecular target: Fuc(a1-2)[GalNAc(a1-3)]Gal(b1-4)GlcNAc(b1-2)Man(a1-3)[Fuc(a1-2)[GalNAc(a1-3)]Gal(b1-4)GlcNAc(b1-2)Man(a1-6)]Man(b1-4)GlcNAc(b1-4)[Fuc(a1-6)]GlcNAc
# Method in brief: as §1
# [23] = molecular target: Fuc(a1-2)[GalNAc(a1-3)]Gal(b1-4)GlcNAc(b1-3)Gal(b1-4)GlcNAc
# Method in brief: as §1
# [24] = molecular target: Fuc(a1-2)[GalNAc(a1-3)]Gal(b1-4)GlcNAc(b1-3)Gal(b1-4)GlcNAc(b1-3)Gal(b1-4)GlcNAc
# Method in brief: as §1
# [25] = molecular target: Fuc(a1-2)[GalNAc(a1-3)]Gal(b1-4)GlcNAc(b1-3)GalNAc
# Method in brief: as §1
# [26] = molecular target: Fuc(a1-2)[GalNAc(a1-3)]Gal(b1-4)GlcNAc(b1-3)[Fuc(a1-2)[GalNAc(a1-3)]Gal(b1-4)GlcNAc(b1-6)]GalNAc
# Method in brief: as §1
# [27] = molecular target: Fuc(a1-2)[GalNAc(a1-3)]Gal(b1-4)GlcNAc(b1-6)GalNAc
# Method in brief: as §1
# [28] = molecular target: Fuc(a1-2)[GalNAc(a1-3)]Gal(b1-4)[Fuc(a1-3)]GlcNAc
# Method in brief: as §1
# [29] = molecular target: Fuc(a1-2)[GalNAc(a1-3)]Gal(b1-4)[Fuc(a1-3)]GlcNAc(b1-3)GalNAc
# Method in brief: as §1
# [30] = molecular target: Fuc(a1-2)[GalNAc(a1-4)]Gal(b1-4)GlcNAc
# Method in brief: as §1
# [31] = molecular target: Fuc(a1-2)[GalNAc(b1-3)]Gal
# Method in brief: as §1
# [32] = molecular target: Fuc(a1-3)GlcNAc
# Method in brief: as §1
# [33] = molecular target: Fuc(a1-3)[Gal(b1-4)]Glc6S
# Method in brief: as §1
# [34] = molecular target: Fuc(a1-3)[Gal(b1-4)]GlcNAc
# Method in brief: as §1
# [35] = molecular target: Fuc(a1-3)[Gal(b1-4)]GlcNAc(b1-2)Man
# Method in brief: as §1
# [36] = molecular target: Fuc(a1-3)[Gal(b1-4)]GlcNAc(b1-2)Man(a1-3)[Fuc(a1-3)[Gal(b1-4)]GlcNAc(b1-2)Man(a1-6)]Man(b1-4)GlcNAc(b1-4)GlcNAc
# Method in brief: as §1
# [37] = molecular target: Fuc(a1-3)[Gal(b1-4)]GlcNAc(b1-2)Man(a1-3)[Fuc(a1-3)[Gal(b1-4)]GlcNAc(b1-2)Man(a1-6)]Man(b1-4)GlcNAc(b1-4)[Fuc(a1-6)]GlcNAc
# Method in brief: as §1
# [38] = molecular target: Fuc(a1-3)[Gal(b1-4)]GlcNAc(b1-3)Gal(b1-3)[Fuc(a1-4)]GlcNAc
# Method in brief: as §1
# [39] = molecular target: Fuc(a1-3)[Gal(b1-4)]GlcNAc(b1-3)Gal(b1-4)[Fuc(a1-3)]GlcNAc
# Method in brief: as §1
# [40] = molecular target: Fuc(a1-3)[Gal(b1-4)]GlcNAc(b1-3)Gal(b1-4)[Fuc(a1-3)]GlcNAc(b1-3)Gal(b1-4)[Fuc(a1-3)]GlcNAc
# Method in brief: as §1
# [41] = molecular target: Fuc(a1-3)[Gal(b1-4)]GlcNAc(b1-3)GalNAc
# Method in brief: as §1
# [42] = molecular target: Fuc(a1-3)[Gal(b1-4)]GlcNAc(b1-6)GalNAc
# Method in brief: as §1
# [43] = molecular target: Fuc(a1-3)[Gal(b1-4)]GlcNAc(b1-6)[Gal(b1-3)GlcNAc(b1-3)]Gal(b1-4)Glc
# Method in brief: as §1
# [44] = molecular target: Fuc(a1-3)[Gal(b1-4)]GlcNAc6S
# Method in brief: as §1
# [45] = molecular target: Fuc(a1-3)[Gal3S(b1-4)]Glc
# Method in brief: as §1
binder,measurement,setting,value
B1,glycan array binding signal (z-score),[1],-0.222
same,glycan array binding signal (z-score),[2],-0.071
same,glycan array binding signal (z-score),[3],-0.42
same,glycan array binding signal (z-score),[4],-0.436
same,glycan array binding signal (z-score),[5],-0.549
same,glycan array binding signal (z-score),[6],0.052
same,glycan array binding signal (z-score),[7],-0.244
same,glycan array binding signal (z-score),[8],-0.169
same,glycan array binding signal (z-score),[9],-0.083
same,glycan array binding signal (z-score),[10],-0.447
same,glycan array binding signal (z-score),[11],-0.463
same,glycan array binding signal (z-score),[12],0.044
same,glycan array binding signal (z-score),[13],-0.155
same,glycan array binding signal (z-score),[14],-0.171
same,glycan array binding signal (z-score),[15],-0.112
same,glycan array binding signal (z-score),[16],0.183
same,glycan array binding signal (z-score),[17],-0.673
same,glycan array binding signal (z-score),[18],-0.174
same,glycan array binding signal (z-score),[19],-0.44
same,glycan array binding signal (z-score),[20],-0.343
same,glycan array binding signal (z-score),[21],2.99
same,glycan array binding signal (z-score),[22],-0.102
same,glycan array binding signal (z-score),[23],-0.411
same,glycan array binding signal (z-score),[24],0.727
same,glycan array binding signal (z-score),[25],-0.36
same,glycan array binding signal (z-score),[26],-0.169
same,glycan array binding signal (z-score),[27],0.003
same,glycan array binding signal (z-score),[28],-0.26
same,glycan array binding signal (z-score),[29],2.04
same,glycan array binding signal (z-score),[30],0.006
same,glycan array binding signal (z-score),[31],-0.384
same,glycan array binding signal (z-score),[32],-0.436
same,glycan array binding signal (z-score),[33],-0.236
same,glycan array binding signal (z-score),[34],-0.08
same,glycan array binding signal (z-score),[35],-0.372
same,glycan array binding signal (z-score),[36],0.054
same,glycan array binding signal (z-score),[37],3.33
same,glycan array binding signal (z-score),[38],-0.148
same,glycan array binding signal (z-score),[39],-0.502
same,glycan array binding signal (z-score),[40],-0.007
same,glycan array binding signal (z-score),[41],-0.547
same,glycan array binding signal (z-score),[42],0.195
same,glycan array binding signal (z-score),[43],-0.327
same,glycan array binding signal (z-score),[44],-0.297
same,glycan array binding signal (z-score),[45],-0.268
